Data reported in paper doi:10.1101/2025.10.23.683869 (bioRxiv, 2025).

Molecular target: T1, soluble biotinylated BCMA (recombinant BCMA-biotin) (UniProt Q02223 1-54, biotin)
T1 sequence (looked up): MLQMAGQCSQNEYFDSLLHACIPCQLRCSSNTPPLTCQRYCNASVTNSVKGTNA
Assay: SPR

Kd: 34.5 nM
B1: monovalent biNTe (heterodimeric, monovalent scFv-Fc human IgG1 bispecific iNKT engager, Fc-silent L234A/L235A (LALA), 'key-in-hole') (bispecific antibody)
chain 1: DIVLTQSPPSLAMSLGKRATISCRASESVTILGSHLIHWYQQKPGQPPTLLIQLASNVQTGVPARFSGSGSRTDFTLTIDPVEEDDVAVYYCLQSRTIPRTFGGGTKLEIKGGGGSGGGGSGGGGSQIQLVQSGPELKKPGETVKISCKASGYTFTDYSINWVKRAPGKGLKWMGWINTETREPAYAYDFRGRFAFSLETSASTAYLQINNLKYEDTATYFCALDYSYAMDYWGQGTSVTVSSGGGGSGGGGSGGGGS[… human IgG1 Fc with changes …]
chain 2: DIKMTQSPSSMYASLGERVTITCKASQDINSYLSWFQQKAGKSPKTLIYRANRLVDGVPSRFSGSGSGQDYSLTISSLEYEDMGIYYCLQYDEFPFTFGGGTRLEIKGGGGSGGGGSGGGGSQVQLQQSGPEVVRPGVSVKISCKGSGYRFTDSAMHWVKQSHAKSLEWIGVISSYNGNTNYNQKFKGKATMTVDKSSSTAYMELARMTSEDSAIYYCARSRDAMDYWGQGTSVTVSSGGGGSGGGGSGGGGS[… human IgG1 Fc with L234A L235A S354C Y407T (EU numbers) …]
